# The supplement of paper PMC11417369
# ± gives the standard deviation of the averaged measurements. The list shows a part of the results.
# Test system: PfAP2-EXP AP2 domain (GST-tagged)
# Experiment: gcPBM binding intensity (ln(normalized median fluorescence intensity)); higher = stronger DNA binding
# Summary of the method: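 After 1 h on an Agilent 4 × 180k array of primer-extended double-stranded 36-bp intergenic genomic probes and negative controls, bound GST-tagged P. falciparum DNA-binding domains were detected with Alexa488 anti-GST antibody and scanned at 488 nm. The domains had been expressed in E. coli, and binding took place in 1× PBS with 1% milk, 0.2 mg/ml BSA, 0.5% salmon testes DNA and 0.03% Triton X-100. Binding intensity is the highest Masliner-normalised natural-log median intensity across replicate spots of either probe orientation.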
row,Sequence,gcPBM binding intensity (ln)
1,ATGGAAACAAGCATCACACATATAAATATATATATA [CACACA_site4979],9.725 ± 0.064
2,TTCTTTTTGAAATATTAACACACATTTTGTTAATTA [CACACA_site9337],8.44 ± 0.42
3,CAAACATTTTAATGTACACACACCCACAGACAAACA [CACACA_site5522],8.94 ± 0.46
4,AGGAATTTATAAAATTGTACTTTTAATTACCTACAG [XGTACX_site3153],8.28 ± 0.33
5,AATTTTCTACAAATGTGTACTAAATAAAATATTACT [XGTACX_site7175],8.39 ± 0.22
6,AAAAAAGAAAAAAGGACACACATAAATATACACCCG [CACACA_site5590],8.74 ± 0.63
7,ATGTGTGTATTTTATAGTACAGTTACAAGCATTTTT [XGTACX_site6351],8.57 ± 0.35
8,ACAATGAGGATATATACACACATACATTAAAAAAAT [CACACA_site6955],8.78 ± 0.38
9,TTTTTCTGTTCTTTTTGTACTTAAATATATTTATTT [XGTACX_site5658],9.03 ± 0.42
10,CACAAAAATAAACACACACACATATATATATATATA [CACACA_site4704],10.2 ± 0.35
11,AGAATATAATTTTTATGTACATATATTAAATATATT [XGTACX_site8521],8.49 ± 0.34
12,AAATAAGAGAAAATATGTACATACATATATTTATAT [XGTACX_site6210],8.51 ± 0.37
13,TCATAAAATATGTTTTGTACATAAAATTAAACAAGT [XGTACX_site1763],8.37 ± 0.2
14,AATACGTTTATATATTGTACGTTATATATATATATA [XGTACX_site7452],9.91 ± 0.33
15,ATATAATTTGTTATACTAACTTTTTAATTATTGATA [GTGCAC_negctrl_site443],8.28 ± 0.36
16,AAATATAAATAAAGATGTACATTATCTATATGTGAT [XGTACX_site4863],8.52 ± 0.28
17,TAAGTTCGAATTACTTAAATATTGATTTTTTTAAAA [TGCATGCA_negctrl_site114],7.96 ± 0.52
18,AAGAAAAGCAAACAAGTGCATAATAACAAAAAAAAT [GTGCAC_site9725],9.13 ± 0.46
19,TATTTATTTATAAACACACAAATATTTTTATTTATA [CACACA_site6889],8.05 ± 0.37

row,Sequence,gcPBM binding intensity (ln)
1,GTTGGTAGATTTATTTGTACATATGTATCATATTAT [XGTACX_site7135],8.82 ± 0.36
2,AAAAATTTATTTTGTTTTTTAAGATTTTTTTTTTTT [CACACA_negctrl_site1210],7.91 ± 0.42
3,ATTCTAAATATCAGTGCACACATTTCTACGCAAAGT [CACACA_site474],8.925 ± 0.049
4,ACATACATATATATACGTACATATATATTTATATAT [XGTACX_site5799],8.75 ± 0.34
5,TAATTACAAAAACATACACACAAAAAAAAAAAAAAA [CACACA_site3782],8.14 ± 0.55
6,AGCAAATACAAACACACACACACATATACATATATA [CACACA_site3497],8.6 ± 0.52
7,TGTATATTATAAGATAGTACATATATATAATATATA [XGTACX_site1297],8.22 ± 0.11
8,TTCATTTACCCTTATTAACACACAAAATATAATACG [CACACA_site8821],8.57 ± 0.44
9,ATCTTATATATACGTTGTACTACAGGATATGTCATA [XGTACX_site5734],8.73 ± 0.4
10,ATAAATATCATATATATACACACGTAATACATAATA [CACACA_site4001],8.4 ± 0.44
11,TCTTACAAAAAAAAAAAAAAATAAAATAAAATATAT [CACACA_negctrl_site1575],8.16 ± 0.44
12,AAGGAGATAATTTATTGTACATATAATAAATGAACA [XGTACX_site6252],8.44 ± 0.4
13,TTAATATTATGTTAAAGTACTTTATATATATATAAT [XGTACX_site2646],8.48 ± 0.45
14,ATATTAAGAATATATACACACATAAGTATTGTATAT [CACACA_site6110],8.05 ± 0.38
15,TATTCGTGCAATAGTAGTACACTTATAAATTATTCT [XGTACX_site4899],8.62 ± 0.23
16,ATAAAATAAAATAAATGTACACGAAAAAAAATATTT [XGTACX_site3747],9.15 ± 0.59
17,AGTGAGAAATACATAATAATACATTATGTGCATATT [XGTACX_negctrl_site247],8.52 ± 0.26
18,TTACTTGTTTATTTTATTTTTTTTTTTTTTTTGTTA [TGCATGCA_negctrl_site266],8.31 ± 0.73
19,GTACACATATATATATATATATATATATATATATTA [CACACA_negctrl_site1580],8.89 ± 0.14

row,Sequence,gcPBM binding intensity (ln)
1,AAGAATATTTTTTTCTGTACATATAATTTATATACG [XGTACX_site5801],8.33 ± 0.34
2,TATGTACAAATATGTACACACACACCGATATATATA [CACACA_site4487],8.76 ± 0.18
3,TATAATTTTCTTAGTAGTACATTTTAAATCTACTAC [XGTACX_site2621],8.46 ± 0.34
4,TGTATCCACATATGTACACACATATATCTGTATATG [CACACA_site5668],8.86 ± 0.42
5,ACTAATAACAAAAGCTTGCACTTTTTTTTTCCTAAT,8.52 ± 0.33
6,ATATAAGATTACAAAAATTATGTGTAAATATTTAAT [XGTACX_negctrl_site448],8.46 ± 0.33
7,AAAAAAAAAAAAAAAAGTACAAAAATTATATTAAGA [XGTACX_site4255],8.41 ± 0.29
8,AATTATATATAACGTAGTACATATTATAAACCACGT [XGTACX_site8816],8.52 ± 0.23
9,ACCTATATAAATTATACACACAAATATAAATATATA [CACACA_site2843],8.3 ± 0.36
10,ATATTCCTTTAATATTGTACTATTTTTTTCCTTATA [XGTACX_site8659],8.77 ± 0.43
11,TATAATAATAATGATAGTACGTATGAGTTCAAGAAA [XGTACX_site4918],8.63 ± 0.42
12,TGTCATAAAACCGTTTGTACATATTAATAGACACCT [XGTACX_site4520],8.55 ± 0.38
13,TTGTTATTCCACCGTTGTACAGTTATATACATACAC [XGTACX_site8296],9.03 ± 0.36
14,TCCATGCAGAAACACACACACAAAAAAAAATTCTTT [CACACA_site4099],8.42 ± 0.65
15,AAAAAAATTACATATCCATTTTAACATAATAAATAG [GTGCAC_negctrl_site618],8.19 ± 0.25
16,TTACGAATAAAACAGTGTACATTGAATTTCTATGAG [XGTACX_site4771],8.48 ± 0.3
17,TTTTTGCAAAAAGAAATAATTTTATTTTAGTTCGGA [CACACA_negctrl_site1718],8.12 ± 0.45
18,ATCTATGGGTAGTATACACACTGTATATTTAGGAAT [CACACA_site5569],8.56 ± 0.47
